Data as given in the RNAGym collection of RNA variant scans (doi:10.1093/nar/gkz1192).
The source gives no read counts; variants with many changes may rest on few reads.

B1: CPEB3 Ribozyme (parent)
chain: UAACAGGGGGCCACAGCAGAAGCGUUCACGUCGCAGCCCCUGUCAGAUUCUGGUGAAUCUGCGAAUUCUGCUGUAUAUCUC

Variants of: B1
Assay: self-cleavage, relative activity (ratio to wild type); higher = more cleavage; in vitro, sequencing
Procedure, shortened: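 Relative activity compares each variant's cleaved/total read fraction with that of the unmutated ribozyme. To get these fractions, barcoded CPEB3 ribozyme libraries from rounds of error-prone PCR were transcribed with T7 RNA polymerase for 5 hours at 37°C and then given 15 min of DNase I treatment before EDTA was added. The RNAs were reverse transcribed with template switching and sequenced on Illumina, and DNA sequencing linked barcodes to variants. A minimum of 5 reads applied, and three batches were averaged.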
In the case of UAACAGGGGGCUACAGCAGAAGCGUACACGUCGCAGCCCCUGUCUGAUUCUGGAGAAUCUGCGAAUUCUGCUGUAUAUCUC, the self-cleavage is reported as 0.82.
In the case of UAACAGGGGGCUACAGCAGAAGCGUCCGCGUCGCAGCCCCUGUCAGAUUCUGGUGAAUCAGCGAAUACUGCUGUAUAUCUC, the self-cleavage is reported as 0.05.
UAACAGGGGGCUACAGCAGAAGCGUCCACGUCGCAGCCCCUGUCAGUUUCUGGUGAAUCUGCGAAUUCUGCUGUAUAUCUC showed a self-cleavage of 0.18.
UAACAGGGGGCUACAGCAGAAGCGUCCACGUCGCAGCCCCUGUCAGAUUCUGGUGAAUCUGCGAAUUCUGCUGUGUAUCUC showed a self-cleavage of 0.95.
In the case of UAACAGGGGGCUACAGCAGAAGCGUCCACGUCGCAGCCUCUGUCAGAUUCUGGUGAAUCUGCGAAUUCUGCUGUAUAUCUC, the self-cleavage is reported as 0.54.
UAACAGGGGGCUACAGCAGAAGCGUCCACGUCGCAGCCCGUGUCAGAUUCUGGUGAAUCUGCGAAUUCUGCUGUAUAUCUC showed a self-cleavage of 0.1.
In the case of UAACAGGGGGCUACAGCAGAAGCGUCCACGCCGCAGCCCCUGUCGGAUUCUGGUGAAUCCGCGAAUUCUGCUGAAUAUCUC, the self-cleavage is reported as 0.47.
With UAACAGGGGGCUACAGCAGAAGCGUCCACGUCGCAGCCCCUGUCAGAUUCAGGUGAAUCUGCGAAUUCUGCUGUAUAUCAC the self-cleavage was 1.04.
UAACAGGGGGCUACAGCAGAAGCGUCCACGUCGCAGCCCCUGUCAGAUUCUGGUGAAGCUGCGAAUUCUGCUGUAUUUCUC showed a self-cleavage of 0.27.
UAACAGGGGGCUACAGCAGAAGCGUCCACGUCGCAGCCCCUGUCAGAUUCUGGUGAAUCUGCGAAUUCUGCCGCAUAUCUC gave a self-cleavage of 1.16.
UAACAGGGGGCUACAGCAGAAGCGUUCACGCCGCGGCCCCUGCCAGAUUCUGGUGAGUCUGCGAACUCCGCUGUAUAUCUC showed a self-cleavage of 0.09.
UAACAGGGGGCUACAGCAGAAGCGUUCACGCCGCAGCCCCUGUCAGAUUCUGGUGAAUCUGCGGAUUCUGCUGUAUGUCUC gave a self-cleavage of 0.7.
Work on UAACAGGGGGCUACAGCAGAAGCGUUCACGCCGCAGCCCCUGUCAGAUUCUGAUGAAUCUGCGAAUUCUGCCGUAUAUCUC yielded a self-cleavage of 1.23.
Variant UAACAGGGGGCUACAGCAGAAGCGUUCACGCCGCAGCCCCUGUCAGAUUCUGGUGAAUCUGCGAAUACUGCCGUAUAUCUC has a self-cleavage of 0.63.
UAACAGGGGGCUACAGCAGAAGCGUUCACGGCGUAGCCCCUGUCAGAUUCUGGUGAAUCUGCGAAUUCUGCUGUAUAUCUC gave a self-cleavage of 0.1.
Variant UAACAGGGGGCUACAGCAGAAGCGUUCACGUCGCAGCCCCAGUCAGAUUCUGGUGAAUCUGCGAAUUCUGCUGUUUACCUC has a self-cleavage of 0.1.
Work on UAACAGGGGGCUACAGCAGAAGCGUUCACGUCGCAGCCCCCGUCAGUUUCUGGUGAAUCUGCGAAUUCUGCCGUGUAUCUC yielded a self-cleavage of 0.34.
For UAACAGGGGGCUACAGCAGAAGCGUUCACGUCGCAGCCCCCGUCAGAUUCUGGUGAAUCUGCGAAGUCUGCUGUAUAUCUC, the self-cleavage was 1.11.
Variant UAACAGGGGGCUACAGCAGAAGCGUUCACGUCGCAGCCCCUGCCAGAUUCUGGCGAAUCUGCGAAUACUGCUGUAUAUCUC has a self-cleavage of 0.13.
With UAACAGGGGGCUACAGCAGAAGCGUUCACGUCGCAGCCCCUGGCAGAUUCUGGUGAAUCUGCGAAUACUGCAGUAUAUCUC the self-cleavage was 0.06.
Variant UAACAGGGGGCUACAGCAGAAGCGUUCACGUCGCAGCCCCUGUCAGAAUCUGGUGAGUCUGCGAAUUCUGCUGUAUAUCUC has a self-cleavage of 0.73.
With UAACAGGGGGCUACAGCAGAAGCGUUCACGUCGCAGCCCCUGUCAGACUCUGGCGAAUCUGCGAAUUCCACUGUACAUCUC the self-cleavage was 0.13.
UAACAGGGGGCUACAGCAGAAGCGUUCACGUCGCAGCCCCUGUCAGACUCUGGUGAAUCUGCGAAUUCUGCAGUAUAUCUC gave a self-cleavage of 0.56.
UAACAGGGGGCUACAGCAGAAGCGUUCACGUCGCAGCCCCUGUCAGAUCCCGGUGAAUCCGCGUAUUCUGCCGUAUAUCUC showed a self-cleavage of 0.13.
In the case of UAACAGGGGGCUACAGCAGAAGCGUUCACGUCGCAGCCCCUGUCAGAUCCUGGUGAAUCUGCGAAUUCUGCAGUAUAUCUC, the self-cleavage is reported as 0.69.
Variant UAACAGGGGGCUACAGCAGAAGCGUUCACGUCGCAGCCCCUGUCAGAUUCUGGCGAAUCCCCGAAUUCUGCUGCAUAUCUC has a self-cleavage of 0.48.
Work on UAACAGGGGGCUACAGCAGAAGCGUUCACGUCGCAGCCCCUGUCAGAUUCUGGUGAAACUGCGAAUUCUGCUGCGUAUCUC yielded a self-cleavage of 1.21.
UAACAGGGGGCUACAGCAGAAGCGUUCACGUCGCAGCCCCUGUCAGAUUCUGGUGAACCUGCGUGCUCUGCUGUAUAUCUC gave a self-cleavage of 0.24.
UAACAGGGGGCUACAGCAGAAGCGUUCACGUCGCAGCCCCUGUCAGAUUCUGGUGAACCUGCGAAUUCUGCUUUAUAUCUC gave a self-cleavage of 1.38.
Work on UAACAGGGGGCUACAGCAGAAGCGUUCACGUCGCAGCCCCUGUCAGAUUCUGGUGAAUCCGCGUAUUCUGCUGUAAAUCUC yielded a self-cleavage of 0.45.
UAACAGGGGGCUACAGCAGAAGCGUUCACGUCGCAGCCCCUGUCAGAUUCUGGUGAAUCUGCGAACUCCGCUGUAUACCUC gave a self-cleavage of 0.28.
Work on UAACAGGGGGCUACAGCAGAAGCGUUCACGUCGCAGCCCCUGUCAGAUUCUGGUGAAUCUGCGAAUCCUGCUGUAUGUCUC yielded a self-cleavage of 0.45.
In the case of UAACAGGGGGCUACAGCAGAAGCGUUCACGUCGCAGCCCCUGUCAGAUUCUGGUGAAUCUGCGAAUCCUGCCGCAUAUCCC, the self-cleavage is reported as 0.65.
In the case of UAACAGGGGGCCCCGGCAGGAGCGUUCACGUCGCGGCCCCAGUCAGAUUCUGGUGAAUCUGCGAAUUCUGCUGUACAUCUC, the self-cleavage is reported as 0.03.
Variant UAACAGGGGGCCCCGGCAGAAGCGUUCUCGUCGCAGCCCCUGCCAGGUUCUGGUGAAUCAGCGGAUUCUGCUGUAUAUCUC has a self-cleavage of 0.14.
UAACAGGGGGCCCCGGCAGAAGCGUUCACGUCGCAGCCCCUGUCAGAUUCUGGUGAAUCAGCGAAUUCUGCUGUAUAUCUC showed a self-cleavage of 0.38.
UAACAGGGGGCCCCGGCAGAAGCGUUCACGUCGCAGCCCCUGUCAGAUUCUGGUGAAUCUGCGAAUUCUGCAGUAUAUCUC showed a self-cleavage of 0.22.
With UAACAGGGGGCCCCUGCAGAAGCGUUCGCGUCGCAGCCCCUGUCAGAUUCUGGUGAAUCUGCGAAUUCCGCCGUAUAUCUC the self-cleavage was 0.13.
In the case of UAACAGGGGGCCCCUGCAGAAGCGUUCACGUCGCGGCCCCUGUCAGAUUCUGGUGAAUCUGCGGAUUCUGCCGUAUUUCUC, the self-cleavage is reported as 1.26.
UAACAGGGGGCCCCAGCGCAAGCGUUCAUGUCGCAGCCCCUGUCAGAUUCUGGAGAAUCUGCGAAUUCUCCUGUAUAUCUC gave a self-cleavage of 0.28.
UAACAGGGGGCCCCAGCGGAAGCGUUCACGAUGCAGCCCCUGUCAGAUUCUGGUGAGUCUGCGAAUUCAGCUGUAUAUCUC gave a self-cleavage of 0.1.
Variant UAACAGGGGGCCCCAGCGGAAGCGUUCACGUCGCAGCCCCUGUCAGAUUCUGGUGAAUCUGCGAAUACUGCCGUAUAUCUC has a self-cleavage of 0.13.
UAACAGGGGGCCCCAGCUGUAGCGUUCACGCCGCAGCCCCUGUCAGAUUGUGGUGAAUCUGCGAAUUCUGCUGUAUAUCUC showed a self-cleavage of 0.14.
With UAACAGGGGGCCCCAGCUGAAGCGAUCACGUCGCAGCCACUGUCAGAUUCUGGUGAAUCUGCGAAUUCUGCCGUAUAUCUC the self-cleavage was 0.21.
In the case of UAACAGGGGGCCCCAGCAGGAGCGUUCACGCCGCAGCCCCUGUGAGAUUCUGGUGAAUCUGCUAAUUCUGCUGUAUAUCUC, the self-cleavage is reported as 0.11.
In the case of UAACAGGGGGCCCCAGCAGGAGCGUUCACGUCGCAGCCCCCGUCAGAUUCUGGUGAGUCUGCGAAUUCUGCUGUAUAUCUC, the self-cleavage is reported as 0.24.
Variant UAACAGGGGGCCCCAGCAGUAGCGUUCACGUCGCAGCCCCCGUCAGAUUCUGGUGAAUCUGCGAAUUCUGCUGUAUAUCUC has a self-cleavage of 0.13.
Variant UAACAGGGGGCCCCAGCAGAGGCGUUCACGUCGCAGCCCCAGUCAGAUUCGGGUGAAUCUGCGGAUUCUGCUGUAUAUCUC has a self-cleavage of 0.05.
UAACAGGGGGCCCCAGCAGAAGCGUUCGCGCCGCAGCCCCUGUCAGAUUCUGGUGAAUCUGCGAAUUCUGCUGUAUAUCCC gave a self-cleavage of 0.28.
For UAACAGGGGGCCCCAGCAGAAGCGUUCGCGUCGCAGCCCCUGUCAGAUUCUGGUGAAUCUGCGAAUUCAGCUGUAUAUCUC, the self-cleavage was 0.11.
For UAACAGGGGGCCCCAGCAGAAGCGUUCACGUCGCUGCCCCUGUCAGAUUCUGGUGAAUCUGCGUGUUCUGCUGCAUAUCUC, the self-cleavage was 0.05.
In the case of UAACAGGGGGCCCCAGCAGAAGCGUUCACGUCGCAGCCCCUGUCGGAUUCUGGUGAAUCUGCGAAUACUGCUGUAUAUCUC, the self-cleavage is reported as 0.55.
Work on UAACAGGGGGCCCCAGCAGAAGCGUUCACGUCGCAGCCCCUGUCAGGUUCUGGUGAAUCUGCGAACUCUGCUGUAUAUCUC yielded a self-cleavage of 0.32.
Variant UAACAGGGGGCCCCAGCAGAAGCGUUCACGUCGCAGCCCCUGUCAGAUUCUGGUGGAUCUGCGAAUACUGCUGUAUAUCUC has a self-cleavage of 0.89.
For UAACAGGGGGCCCCAGCAGAAGCGUUCACGUCGCAGCCCCUGUCAGAUUCUGGUGAGUCUGCGGGUUCUGCUGUAUACCUC, the self-cleavage was 0.15.
UAACAGGGGGCCCCAGGAGAAGCGUUCACGUCGCAGCCCCUGUCAGAUUCCGGUGUAUCUGCGUAUUCUGCUGUAUAUCUC gave a self-cleavage of 0.
In the case of UAACAGGGGGCCCCAGUAGAAGCGUUCACGUCGCAGCCCCUGUCAGAUUCUGGUGGAUCCGCGAAUUCUGCUGUAUAUCAC, the self-cleavage is reported as 0.12.
Work on UAACAGGGGGCCCCAGUAGAAGCGCUCACGUCGCAGCCCCUGUCAGAUUCUGGUGAAUUUGCGAAUUAUGCUGUAUAUCCC yielded a self-cleavage of 0.14.
Variant UAACAGGGGGCCCCAGUAGAAGCGCUCACGUCGCAGCCCCUGCCAGAUUCUGGUGAAUCUGCGAAUUCUGCUGUAUAUCUC has a self-cleavage of 0.24.
In the case of UAACAGGGGGCCCCAGCAGAAGCGUUUACGUCGCAGCCCCUGUCAGAUUCUGGUGAAUCUGCGAAUUCUGCUGUAUAUAUC, the self-cleavage is reported as 0.04.
UAACAGGGGGCCCCAGCAGAAGCGUUUACGUCGCACCCCUUGUCUGAUUCUGGUGAAUCUGCGAAUUCAGCUGUAUAUCUC showed a self-cleavage of 0.19.
In the case of UAACAGGGGGCCCCAGCAGAAGCGUUCAAGUUGCAGCCCCUGUCAGAUUCUGGUGAAUCUGCGAAUUCUGCUGUAUUUCUC, the self-cleavage is reported as 0.1.
Variant UAACAGGGGGCCCCAGCAGAAGCGUUCACGUCGCAGCCGCUGCCUGAUUCUGGUGAAUCUGCGAAUUCUGCUGUAUAUCUC has a self-cleavage of 0.06.
In the case of UAACAGGGGGCCCCAGCAGAAGCGUUCACGUCGCAGCCCCUGUCAGAUUCUGGUGAAUCUGGGAAUACUGCUGUAUAUCUC, the self-cleavage is reported as 0.12.
UAACAGGGGGCCCCAGCAGAAGCGUUCACGUCGCAGCCCCUGUCAGAUUCUGGUGAAUCUGCGAAUUCUGACGUAUAUCUC showed a self-cleavage of 0.47.
UAACAGGGGGCCCCAGCACAAGCGUUCACGUCGCAGCCACUGUCAGAUUCUGGUGAGUCUGCGGAUUCUGCUGUAUAUCUC showed a self-cleavage of 0.3.
Work on UAACAGGGGGCCCCAGCAGAAGCACUCACGUCGCAGCCCCUGUCAGAUUCUGGCGAAUCUCCGAAUUCUGCUGUAUCUCUC yielded a self-cleavage of 0.06.
Variant UAACAGGGGGCCCCAGCAGAAGCGUUCACGUCGCAGCCCCUGUCAGAUUCUGAUGUAUCUGCGAAUUCUGCUGUAUAUCUC has a self-cleavage of 0.74.
